In PubChem BioAssay (NCI):
Several values for one entry are separate records, joined by “and”; a condition that tells them apart may be missing. Equal entries are not always repeated.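 A five-concentration, 48-hour dose response in 96-well plates underlies each endpoint, interpolated linearly between surrounding concentrations. GI50 is the concentration that inhibits growth by half. At the TGI there is no net growth.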

Test system: NCI-H322M lung
Assay: NCI-60 cell line screen, 48 h

Structure (SMILES)	GI50	TGI
O=C1C=CC(=O)N1c1cccc(N2C(=O)C=CC2=O)c1	22.9 µM	43.3 µM
Cc1ccc(C(=O)/C=C/c2cccc([N+](=O)[O-])c2)cc1	–	> 100 µM
Clc1ccccc1CNc1c2ccccc2nc2ccccc12	2.18 µM	8.49 µM
CCCCCCCCCCCCCCCCCCNc1nc(=O)n(C2CC(O)C(COP(=O)(O)OCC3OC(n4ccc(N)nc4=O)C(O)C3O)O2)cc1F (stereo not given)	–	> 100 µM
Cc1ccc(C(=O)/C(=C\c2ccc([N+](=O)[O-])cc2)S(=O)Cc2ccc(Cl)cc2)cc1 (stereo not given)	2.26 µM	6.53 µM
COc1cc2c(cc1OC)C(=O)C1(C2)[C@H](c2ccccc2)C2C(=O)c3cc(OC)c(OC)cc3C2[C@H]1c1ccccc1 (stereo not given in full)	–	> 100 µM
OCCNc1nc(Nc2ccc(Cl)c(Cl)c2)nc2ccccc12	12.3 µM	25.5 µM
O=c1c(-c2ccccc2F)coc2cc(F)ccc12	–	> 100 µM
O=C(Nc1cccc(-c2ccc(Cl)c(C(F)(F)F)c2)c1)C1CCN(Cc2cccc3cccnc23)CC1	1.68 µM	3.07 µM
CCc1cc(CCC(=O)Nc2ccccc2[N+](=O)[O-])[nH]c(=S)n1	–	> 100 µM
O=C1NC(N2CCCCC2)=N/C1=C\c1ccc(Cl)cc1	–	> 100 µM
Nc1n[n+](-c2ccccc2)no1	–	> 100 µM
CCOC(=O)c1cc(-c2ccccc2)[nH]c1N/N=C/c1ccc(Cl)cc1	> 100 µM	> 100 µM
CN(C)c1snc2c1c(=O)n(C)c(=O)n2C	–	> 100 µM
[N-]=[N+]=NCCCn1c2c(c3ccc([N+](=O)[O-])cc3c1=O)C(=O)c1cc(F)ccc1-2	7.37 µM	> 30.1 µM
C=C(C(=C)N1N=NC2C3CCC(C3)C21)N1N=NC2C3CCC(C3)C21 (stereo not given)	–	> 100 µM
O=C1OC(=O)C2CCCC3CCCC1C32 (stereo not given)	–	> 100 µM
O=C1C2C(C(=O)N1c1ccccc1)C1([N+](=O)[O-])C=C3c4ccccc4N(C(=O)c4ccccc4)C32C2C(=O)N(c3ccccc3)C(=O)C21 (stereo not given)	–	> 100 µM
N#CC1(C#N)C2C=CC(c3coc4cccc2c34)C1(C#N)C#N (stereo not given)	–	32 µM
CCN(CCCl)c1cc(CN(C)C)cc(NC(=O)C23CCC(C(=O)Nc4cc(CN(C)C)cc(N(CC)CCCl)c4)(CC2)CC3)c1	–	12.7 µM
O=C(N/N=C/c1ccc(O)cc1O)c1cccc(Nc2ccnc(C(F)(F)F)c2)c1	0.437 µM	22.3 µM
O/N=C1/CC2(N3CCOCC3)C3CC/C(=N\O)C2CC1(Cc1ccccc1)C3 (stereo not given)	–	> 100 µM
CCOC(=O)c1c(C)n(C)c2c1cc(O)c1[nH]c3c(c12)CCCC3	–	60.3 µM

Structure (SMILES)	GI50	TGI
COc1cccc(Nc2nc(N)nc(N)c2N)c1	–	> 100 µM
CCN(CC)Cc1ccc(C(=S)Nc2ccc(C)cc2)s1	–	37.6 µM
CC(=O)OCC1OC(O[C@@H]2C[C@H]3C(C)(C)[C@@H](OC(C)=O)CC[C@]3(C)[C@H]3CC[C@]45C[C@]4(CC[C@H]5[C@@H](C)C[C@@H](O)[C@H](O)C(C)(C)F)[C@@]32C)C(O)C(O)C1O (stereo not given in full)	–	3.05 µM
COC(=O)C12OCC34C(CC5C(C)C6=CC(=O)OC6=CC5(C)C3C(O)C1O)OC(=O)C(O)C24 (stereo not given)	0.778 µM	> 42.9 µM
CCCCCCCCCCCCCCCCCCOCC(CCP(=O)(CP(=O)(O)O)Oc1ccccc1)OCCCCCCCCCCCCCCCCCC (stereo not given)	–	> 100 µM
O=C1c2ccccc2-c2c1c1c(O)cccc1n2Cc1ccccn1	56.2 µM	> 100 µM
CC(=O)OC[C@@]12Cc3ccc(C)c(O)c3[C@]1(C)[C@@H](OC(C)=O)[C@]1(O)[C@H]([C@@H](OC(=O)c3ccccc3)[C@@H](C)[C@H]1OC(C)=O)[C@H]2OC(C)=O	–	> 50 µM
C#Cc1cc(Br)c(OC(=O)C(C)(C)C)c(-c2cc(C#C)cc(Br)c2OC(=O)C(C)(C)C)c1	–	> 100 µM
Cc1cccc(C(C)(C)C)c1NC(=O)CCc1nc(=S)[nH][nH]1	–	> 100 µM
CC(C)(C)OC(=O)NCCNCCNc1ccccc1	–	> 100 µM
CC1(C)NCCC[C@]2(C)[C@H]3CC[C@@H]4[C@H]5[C@H](C(=O)/C=C/c6ccccn6)CC[C@]5(CO)CC[C@@]4(C)[C@]3(C)CC[C@@H]12	3.37 µM	14.9 µM
CN1CCN(c2ccc(NC(=O)c3cncnc3Nc3ccc(OCc4ccccn4)c(Cl)c3)cc2)CC1	4.14 µM	9.19 µM
C=C1C(=O)OC2C3C(=C)[C@@H](OC(C)=O)CC3C(C)=CC(OC(=O)C(C)(OC(C)=O)C(C)OC(C)=O)[C@@H]12 (stereo not given in full)	–	> 100 µM
CC1=C(C(=O)Nc2cc(Cl)c3[nH]ncc3c2)C(c2ccc(C(F)(F)F)cc2)CC(=O)N1 (stereo not given)	> 25 µM	> 25 µM
CC(=O)c1c(CO[N+](=O)[O-])n([O-])c2ccccc2[n+]1=O	–	> 100 µM
CC(C(N)C(=O)NC(C(=O)O)C1OC(n2ccc(=O)[nH]c2=O)C(O)C1O)C(O)c1ccc(O)cn1 (stereo not given)	–	> 100 µM
CN(C(=O)C1=CCC2(CC1)OCCO2)c1ccccc1I	–	> 100 µM
O=C1c2ccccc2C2C1C(c1ccccc1)C1(Cc3ccccc3C1=O)C2c1ccccc1 (stereo not given)	–	> 100 µM
CC(=O)O[C@@]1(C)[C@@H](C)C(=O)O[C@@H]2CCN3CC=C(COC(=O)[C@]1(C)O)[C@H]23	–	> 100 µM
COc1cc2nccc(Oc3ccc(NC(=O)Nc4cc(C)on4)c(Cl)c3)c2cc1OC	4.58 µM and 9.17 µM	99.8 µM and > 10 µM
NS(=O)(=O)CC1CC[CH-]CC1.[Cl-].[Cl-].[Cl-].[Cl-].[Cl-].[Sb+5].c1ccncc1	> 100 µM	> 100 µM
CC1(C)N=C(N)N=C(N)N1c1cccc(C(=O)Nc2ccc(S(=O)(=O)F)cc2)c1	–	> 100 µM
